According to PubChem BioAssay AID651820 (National Center for Advancing Translational Sciences (NCATS), 2012):
Values joined by “and” are separate entries in the source; they are usually repeats but may differ in a detail not shown here. Identical values can stand only once. Out of some 340,000 compounds screened, about 12,000 (3.5%) were called active. Inconclusive results, whose numbers are uncertain, are shown with a selection of clear calls. Calls come from the whole dose curve; as a rule, active = well fitted inhibition curve with a large enough effect; inconclusive = small, poorly fitted or top-dose-only effect, or another doubt; inactive = no such curve, though single readings can be large or run the other way. A potency beside an inconclusive call is a rough fit, not a confirmed value.

Assay: qHTS Assay for Inhibitors of Hepatitis C Virus (HCV)
Details: Huh7.5.1 HCVcc-Cre (HCVcc is cell-culture hepatitis C virus) infection, luciferase reporter, 44 h; series mostly up to 41.8 µM
Summary of the method: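 Cells (1,000/well) were plated 4 h before compound, then infected with HCVcc-Cre virus (~0.5 moi). After 44 h further culture, infection was read as luciferase luminescence following a 15 min substrate incubation at room temperature.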
Potency is the fitted concentration of half-maximal effect; tags give direction and shape of the fitted curve.

| SMILES | Potency |
| --- | --- |
| CCCCN(C)C1=Nc2cccc3cccc1c23 | inconclusive: 25.1 µM [inhibitor, single point] |
| Cc1nc2c(C#N)c(C)[nH]n2c(=O)c1Cc1ccccc1 | inactive |
| C=CCN1C(=O)N(c2ccc(Cl)cc2)C(=O)C1CC(=O)Nc1ccc(F)cc1 (stereo not drawn) | inactive |
| CCC(=O)N1CCc2cc(Br)cc(S(=O)(=O)N(C)c3ccc(OC)cc3OC)c21 | inconclusive: 14.1 µM [inhibitor, single point] |
| CC(=O)c1ccc(NC(=S)Nc2ccc(Br)c(Cl)c2)cc1 | inactive |
| CNC(=O)c1nnsc1S(=O)c1ccc(Cl)cc1 (stereo not drawn) | inconclusive: 22.4 µM [inhibitor, single point] |
| COCCCNC(=O)CSc1c2c(nc3ccc(Cl)cc13)CCCC2 | inconclusive: 31.6 µM [inhibitor, single point] |
| CC(=O)C1=C(C)NC(SCC(=O)c2cc(Cl)ccc2Cl)=C(C#N)C1c1ccco1 (stereo not drawn) | inconclusive: 31.6 µM [inhibitor, single point] |
| Cc1cc(=O)c2cc(Br)ccc2n1CC(=O)NCc1ccccc1 | active: 12.6 µM |
| Cc1ccc(NC(=O)c2cccc3c2-c2ccccc2C3=O)cc1C | inconclusive: 25.1 µM [inhibitor, single point] |
| CCN(CC)CCCNc1nc(CN2CCOCC2)nc2sc3c(c12)CCC3 | inconclusive: 31.6 µM [inhibitor, single point] |
| COc1cccc(NC(=O)CN(C)C(=O)c2cc(-c3ccccc3)nc3ccccc23)c1 | inconclusive: 31.6 µM [inhibitor, single point] |
| Cc1ccc(OCCn2cc(/C=C(\C#N)C(=O)NCC3CCCO3)c3ccccc32)cc1 (stereo not drawn) | inconclusive: 31.6 µM [inhibitor, single point] |
| COc1ccc(CNC(=O)c2ccc3c(c2)N(C)C(=O)CS3=O)cc1 (stereo not drawn) | inactive |
| CCC(=O)N(Cc1cc2cc(OC)ccc2[nH]c1=O)c1ccc(C)cc1 | inconclusive: 10 µM [inhibitor, partial curve] |
| N#C/C(=C\c1cc([N+](=O)[O-])c(N2CCCCC2)cc1N1CCCCC1)c1nn(-c2ccccc2)c(N)c1C#N | inconclusive: 2.24 µM [inhibitor, full curve] |
| CCN(Cc1nc2ccccc2c(=O)[nH]1)C(=O)C1CC(=O)N(c2cccc3ccccc23)C1 (stereo not drawn) | inactive |
| CCCCn1c(NCc2ccccc2O)nc2ccccc21 | inconclusive: 31.6 µM [inhibitor, single point] |
| O=C(NCc1cccc(C(F)(F)F)c1)C1CC(c2c(Cl)cccc2Cl)=NO1 (stereo not drawn) | inconclusive: 8.91 µM [inhibitor, partial curve] |
| COc1ccc(N2CCN(C(=O)c3ccc(CS(=O)(=O)c4ccc(Br)cc4)o3)CC2)cc1 | inactive |
| CCCn1c(N2CCN(CC(=O)Nc3ccc4c(c3)OCCO4)CC2)nc2ccccc21 | inconclusive: 501 nM [inhibitor, full curve, poor fit] and inconclusive: 10 µM [inhibitor, partial curve] |
| COc1ccc(NS(=O)(=O)c2cccc(C(=O)N(C)CC(=O)Nc3ccc(C)cc3)c2)cc1 | inconclusive: 2.24 µM [inhibitor, single point] |
| O=c1cc(-c2ccccc2)oc2cc(OCc3ccccc3)cc(O)c12 | inconclusive: 12.6 µM [inhibitor, single point] |

| SMILES | Potency |
| --- | --- |
| O=C(COC(=O)c1ccccc1Cl)Nc1ccc2[nH]c(=O)[nH]c2c1 | inconclusive: 4.47 µM [inhibitor, single point] |
| CCOc1ccccc1OCC(=O)N/N=C(\C)Cc1ccc(OC)cc1 | inactive |
| Nc1ccc2c3c(cccc13)-c1ccccc1-2 | inconclusive: 15.8 µM [inhibitor, partial curve] |
| CC1(c2ccccc2)CC(C)(C)N2C(=O)Cc3cccc1c32 (stereo not drawn) | inactive |
| COc1ccc(CN(C)CC(=O)Nc2sc3c(c2C#N)CCC3)c(OC)c1 | inconclusive: 10 µM [inhibitor, partial curve] |
| CCOc1ccccc1N/C(=N/c1nc(C)cc(C)n1)NC(=O)Nc1ccc(Cl)c(Cl)c1 | inactive |
| COc1ccc(CCN=C(N)NS(=O)(=O)c2ccc(F)cc2)cc1 | inconclusive: 31.6 µM [inhibitor, single point] |
| CCN(Cc1ccccc1)C(=O)CCNS(=O)(=O)c1ccc2c(c1)CC(C)N2C(C)=O (stereo not drawn) | inconclusive: 1.78 µM [inhibitor, partial curve] |
| CC(=O)N=c1sc2c3ccccc3ccc2n1C | inconclusive: 2.82 µM [inhibitor, single point] |
| COc1ccc(C(=O)NC(=S)NNC(=O)CNC(=O)C2CCCCC2)cc1 | inactive |
| COc1ccc(C(=O)Nc2cccc(C)n2)cc1S(=O)(=O)N1CCCc2ccccc21 | active: 2.51 µM |
| CN(CCC#N)c1ccc(/C=C(\C#N)c2ccccn2)cc1 | inconclusive: 15.8 µM [inhibitor, single point] |
| CCc1ccc(-c2cc(C(F)(F)F)n3nc(C(=O)Nc4c(C)nn(Cc5ccccc5C)c4C)cc3n2)s1 | inconclusive: 15.8 µM [inhibitor, partial curve] |
| O=C(CSc1cccc[n+]1[O-])C12CC3CC(CC(C3)C1)C2 | inconclusive: 31.6 µM [inhibitor, single point] |
| O=C(Nc1ccc(Cl)c(Cl)c1)Nc1ccc(Br)cc1F | inconclusive: 31.6 µM [inhibitor, single point] |
| CCOc1ccc(OCC)c(NC(=O)CCn2cccc2)c1 | inconclusive: 14.1 µM [inhibitor, single point] |
| CC(=O)Nc1ccc(S(=O)(=O)Nc2cccc(S(=O)(=O)N(C)c3ccccc3)c2)cc1 | inconclusive: 14.1 µM [inhibitor, single point] |
| CCN(C[C@H]1N[C@@](CC)(C(=O)OC)[C@H]2C(=O)N(Cc3ccccc3)C(=O)[C@@H]12)C(=O)c1ccc(C)cc1 | inactive |
| Fc1ccc2c(c1)/C(=N/Nc1ccccn1)CCS2 | inconclusive: 14.1 µM [inhibitor, single point] |
| COc1ccccc1-c1cc(C(=O)NCc2ccco2)no1 | inconclusive: 8.91 µM [inhibitor, partial curve] |
| COc1cc(/C=C/C(=O)OCC(=O)Nc2cc(C)on2)ccc1OCC#N | inconclusive: 4.47 µM [inhibitor, single point] |
| CC(C)(C)NC(=O)c1ccc2c(c1)N(CC(=O)N1CCN(c3ccc(F)cc3)CC1)C(=O)C(C)(C)O2 | inactive |
| Nc1c(C(=O)NC2CC2)sc2nc3c(c(-c4ccco4)c12)CC/C3=C/c1ccco1 | inconclusive: 31.6 µM [inhibitor, single point] |

| SMILES | Potency |
| --- | --- |
| Cn1cc([C@@H]2C[C@H]3CN(Cc4cccc(Cl)c4)C(=O)[C@]34CCCN24)c2ccccc21 | inconclusive: 25.1 µM [inhibitor, single point] |
| O=C(Nc1ccccc1C1CC1)c1cccs1 | inconclusive: 2.24 µM [inhibitor, full curve] |
| Cc1cccc(-n2ncc3c2CCCC3NC(=O)CCc2cccnc2)c1C (stereo not drawn) | inconclusive: 11.2 µM [inhibitor, partial curve] |
| O=[N+]([O-])c1ccc(COc2ccc(-c3[nH]ncc3-c3ccccc3)c(O)c2)cc1 | inactive |
| CC(=O)Nc1ccc(C(=O)OCCC(C)C)cc1 | inactive |
| CC(=O)N1c2ccc(S(=O)(=O)N3CCC(C(=O)NCc4ccc(Cl)cc4)CC3)cc2CC1C (stereo not drawn) | inconclusive: 10 µM [inhibitor, partial curve] |
| O=C1C=C(N(CCO)Cc2ccccc2)c2ccccc2C1=O | inconclusive: 31.6 µM [inhibitor, single point] |
| CCN1CCCC1CNc1ncnc2c1[nH]c1ccc(F)cc12 (stereo not drawn) | inconclusive: 11.2 µM [inhibitor, single point] |
| Cc1cc(-c2nnc(SCC(=O)Nc3ccccc3C)n2N)n[nH]1 | inactive |
| COC(=O)C1CCN(C(=O)c2ccc3nc(-c4cccc(OC)c4)oc3c2)CC1 | inactive |
| CCS(=O)(=O)c1ccc(O)c(NC(=O)Nc2ccccc2OC)c1 | inactive |
| CCOc1c(Cl)cc(CNCC(C)C)cc1Cl | inactive |
| O=C(COc1ccccc1)N1CCN(C/C=C/c2ccccc2)CC1 | inconclusive: 20 µM [inhibitor, single point] |
| COc1ccc(COC(=O)C2=C(C)NC(=O)NC2c2ccc(F)cc2)cc1 (stereo not drawn) | inconclusive: 12.6 µM [inhibitor, partial curve] |
| Cc1ccc(C)c(NC(=O)CN(C)C(=O)Cc2ccc(Cl)cc2Cl)c1 | inconclusive: 31.6 µM [inhibitor, single point] |
| Cc1cccc(C(C)C)c1NC(=O)CN1C(=O)NC2(CCc3ccccc32)C1=O (stereo not drawn) | inactive |
| Cc1ccc(/C=C2\SC(=O)N(CCC(=O)N3CCN(C)CC3)C2=O)cc1 | inconclusive: 31.6 µM [inhibitor, single point] |
| CC(=O)Oc1ccc(Cl)cc1/C=C/c1ccc2ccccc2n1 | active: 7.94 µM |
| CCOc1ccc2nc(NC(=O)NC3CCCCC3)sc2c1 | inconclusive: 12.6 µM [inhibitor, single point] |
| CCOC(=O)CC(NCc1ccc(OC)c(OCC)c1)c1ccc(C)cc1 (stereo not drawn) | inconclusive: 6.31 µM [inhibitor, full curve, poor fit] |
| COc1ccc(OC)c(C(c2nnnn2C2CCCC2)N2CCN(c3ccccc3F)CC2)c1 (stereo not drawn) | inconclusive: 31.6 µM [inhibitor, single point] |
| Cc1cc(Nc2ccc(Cl)cc2)n(-c2ccccc2)n1 | inconclusive: 22.4 µM [inhibitor, partial curve] |
